Reference: PubChem BioAssay AID1346428 (National Center for Advancing Translational Sciences (NCATS), 2018)
About 1,200 (2.5%) of roughly 48,000 compounds were called active. Roughly 2% stayed inconclusive and do not appear here.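 The calls were made as follows: active = activation of at least 60% and not above a set upper limit (about 1 call in 100 departs from these limits); inconclusive = activation of 40% to 60%, or above that upper limit; inactive = activation under 40%.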 The list shows a part of the results.

target: Probable G-protein coupled receptor 32 (Homo sapiens) (UniProt O75388); test: qHTS for Agonists of Human Resolvin D1 Receptor DRV1; settings: CHO-K1 GPR32 beta-arrestin PathHunter luminescence, 90 min; at 76.9 µM; active compounds read high; zero percent set by DMSO-only wells; also: 0% is about no effect
UniProt O75388, sequence (O75388 whole entry, looked up, the tested form may be a part): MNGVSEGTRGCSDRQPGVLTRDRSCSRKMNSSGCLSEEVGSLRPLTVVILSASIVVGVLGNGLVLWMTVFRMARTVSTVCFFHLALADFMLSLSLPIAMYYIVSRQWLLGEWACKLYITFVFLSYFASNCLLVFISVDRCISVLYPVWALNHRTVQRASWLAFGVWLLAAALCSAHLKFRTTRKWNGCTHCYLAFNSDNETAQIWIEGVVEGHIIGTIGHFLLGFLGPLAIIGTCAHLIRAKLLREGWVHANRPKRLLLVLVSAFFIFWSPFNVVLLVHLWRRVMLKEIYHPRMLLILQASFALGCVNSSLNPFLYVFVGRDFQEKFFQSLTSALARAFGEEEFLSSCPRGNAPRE
Summary of the method: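 GPR32 activation in stably transfected CHO-K1 cells, detected as beta-arrestin recruitment by enzyme-fragment complementation. Compound exposure: 90 min, 37 °C.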

SMILES | activation
COc1cccc(N2CCN(C(=O)C3CCN(S(=O)(=O)c4c(C)noc4C)CC3)CC2)c1 | inactive: -9.9%
CCOc1ccccc1NC(=O)c1nc2nc(C)cc(C(F)F)n2n1 | inactive: -2.69%
O=C(NC1CC(=O)N(c2ccc(Cl)cc2)C1)c1ccc2c(c1)OCO2 (stereo not drawn) | inactive: 2.28%
CSc1ccc(CCNC(=O)CN2C(=O)c3cccnc3Oc3ccc(C)cc32)cc1 | inactive: -15.8%
N=c1n(CCN2CCCCC2)c2ccccc2n1CC(O)COc1ccc(Cl)cc1Cl (stereo not drawn) | active: 69.6%
Cc1cc(NC(=O)N(C)CCc2c(C)nn(C)c2C)ccc1Br | active: 64.7%
CCCN1CCN(CCCNC(=O)Cn2nc(CC)n3c(cc4occc43)c2=O)CC1 | inactive: 4.99%
Cc1ccc2c(=O)cc(C(=O)N(Cc3ccc(N(C)C)cc3)C3CCS(=O)(=O)C3)oc2c1 (stereo not drawn) | inactive: -14.6%
COc1ccc(Cn2c(SCc3ccc(C(=O)NCc4cccs4)cc3)nc3cccnc32)cc1 | inactive: -19.3%
CC1(C)O[C@H]2[C@@H](O1)[C@@H](C(=O)Nc1ccc(F)c(F)c1)O[C@@H]1OC(C)(C)O[C@@H]12 | inactive: -3.59%
CCc1cccc(C)c1NC(=O)CSc1nc2ccccc2nc1N1CCOCC1 | inactive: -6.16%
Cc1cc(F)ccc1NS(=O)(=O)c1c(C)nc2scc(C)n2c1=O | inactive: -2.04%
COc1ccccc1CN1C(=O)CN(C2CCCCCC2)C(=O)C1c1ccc(C)cc1 (stereo not drawn) | inactive: -15.4%
CC1=C(c2ccc(C(C)C)cc2)S(=O)(=O)NC1=NCc1ccccc1Br | inactive: -6.96%
CCOC(=O)c1c(C)oc2ccc(N(C(=O)c3ccncc3)S(=O)(=O)c3ccc(Br)cc3)cc12 | inactive: -2.03%
CCOc1ccc(N(CC(=O)NCc2ccc(C)cc2)S(=O)(=O)c2c(C)noc2C)cc1 | inactive: -21.8%
O=C(c1ccc(CSc2nc3ccncc3n2Cc2cccc(F)c2)cc1)N1CCCCC1 | inactive: 38%
Cc1cccc(NC(=O)Cn2c(=O)nc(-c3ccccc3)c3ccccc32)c1C | inactive: 2.07%
CNC(=O)C1CCC(Cn2c(=O)c3sccc3n(CC(=O)Nc3ccc(C)c(F)c3)c2=O)CC1 (stereo not drawn) | inactive: -17.6%
CCOc1cc2[nH]c(=O)n(CCCC(=O)N3CCN(c4ccc(OC)cc4)CC3)c(=O)c2cc1OCC | inactive: -7.03%
CCOC(=O)c1c(C)[nH]c(C)c1S(=O)(=O)N1CCC(C(=O)Nc2ccc(C)cn2)CC1 | inactive: -7.72%

SMILES | activation
CCOc1ccc(CCNC(=O)Cn2ncc3c(=O)oc4ccc(C)cc4c32)cc1 | inactive: -7.7%
CCn1c2ccccc2c2cc(NC(=O)COc3cccc(C)c3)ccc21 | inactive: 24%
COc1ccc(C)cc1NC(=O)C1CCCN(S(=O)(=O)c2ccc3[nH]c(=O)ccc3c2)C1 (stereo not drawn) | inactive: -18.7%
COc1cc(NC(=O)CN2C(=O)CN(C)C(=O)c3ccccc32)cc(OC)c1OC | inactive: 8.88%
COc1ccc(OC)c(NS(=O)(=O)c2ccc3[nH]c4c(c3c2)CCCCC4)c1 | inactive: 2.19%
CCCCN1CC(c2nc3ccccc3n2CCCCOc2ccc(C)c(C)c2)CC1=O (stereo not drawn) | inactive: 49%
Cc1ccc(F)c(NC(=O)Nc2ccc3snnc3c2)c1 | active: 68.1%
O=C1c2[nH]nc(-c3ccccc3O)c2C(c2cccc(Cl)c2)N1Cc1cccnc1 (stereo not drawn) | inactive: -16.9%
CCOc1ccc(CCNC(=O)c2cn(CC)c3ccc(S(=O)(=O)N4CCCCCC4)cc3c2=O)cc1OCC | inactive: -21.3%
CC(=O)N1CCCc2cc(S(=O)(=O)N(C)CC(=O)Nc3cccc(C)c3C)ccc21 | inactive: 5.25%
Cc1cccc(CNC(=O)Cn2ccc3cc(S(=O)(=O)N4CCCC4)ccc32)c1 | inactive: 2.08%
O=C(NCCN1CCN(c2cccc(Cl)c2)CC1)C1COc2ccccc2C1 (stereo not drawn) | inactive: -24.3%
CCC(C)(C)c1ccc(CC(C)CN2C[C@@H](C)O[C@@H](C)C2)cc1 (stereo partly drawn) | active: 113%
CCOc1ccc(NC(=O)CN2CCN(CC(=O)Nc3ccccc3OCC)CC2)cc1 | inactive: -9.9%
Cc1cc(C(=O)Nc2c(C)nn(Cc3ccc(F)cc3)c2C)no1 | inactive: 11.4%
NC(=O)C1CCN(C(=O)Cn2c(-c3cccs3)cc3ccccc32)CC1 | inactive: -17%
COc1ccc(Cl)cc1NC(=O)CSc1nc(-c2ccco2)cc(C(F)(F)F)n1 | inactive: -11.9%
CCOc1cc(C(=O)N2CCC(c3ccncc3)CC2)cc(OCC)c1OCC | inactive: -9.59%
COc1ccc(CCNC(=O)CCn2c(=O)c3cccn3c3cccnc32)cc1OC | inactive: 7.83%
CCc1ccccc1Nc1nc2ccccc2n2cnnc12 | inactive: -12.1%
CCCCN(c1ccccc1)S(=O)(=O)c1ccc2c(c1)CC(C)N2C(=O)C1CC1 (stereo not drawn) | inactive: -25.1%

SMILES | activation
CC1CN(S(=O)(=O)c2ccc3c(c2)NC(=O)CC(=O)N3)c2ccccc2O1 (stereo not drawn) | inactive: 8.81%
COc1ccccc1-n1nc(-c2ccccc2)c2cnc3cc(C(F)(F)F)ccc3c21 | inactive: -6.26%
CCOC(=O)c1ccc(NC(=O)COC(=O)c2cn(CC)c3nc(C)ccc3c2=O)cc1 | inactive: 3.89%
Cc1cccc(C)c1OC(=O)CSc1nnc(-c2cccs2)o1 | inactive: 3.59%
COc1ccc(-c2oc3ncn4nc(-c5ccccc5C)nc4c3c2-c2ccc(OC)cc2)cc1 | inactive: -7.27%
COc1ccc(CNC(=O)CCc2nnc3n(CC(C)C)c(=O)c4ccccc4n23)cc1 | inactive: -0.84%
CCOC(=O)c1ccc(C#Cc2ccc3c(c2)C(C)(C)CCS3)nc1 | inactive: 11.6%
Cc1ccc(C)c(CN2C(=O)c3ccccc3S(=O)(=O)c3ccc(C(=O)N4CCN(c5ccccc5F)CC4)cc32)c1 | inactive: -11.5%
O=S(=O)(Nc1ccc(-c2ccc(N3CCCC3)nn2)cc1)c1cccc(C(F)(F)F)c1 | inactive: 5.4%
CCn1ccc2cc(S(=O)(=O)N3CCCN(C(=O)NCCOC)CC3)ccc21 | inactive: 19.3%
CC(C)N(CCC(=O)c1ccc2ccccc2c1)Cc1ccccc1 | inactive: -9.1%
COc1ccc(C)cc1NS(=O)(=O)c1ccc2[nH]c(=O)c(=O)[nH]c2c1 | inactive: -8.31%
CCS(=O)(=O)N1CCc2cc(C(=O)Nc3cc(C(F)(F)F)ccc3Cl)ccc21 | inactive: -0.73%
COc1cccc(NC(=O)Cn2c(=O)n(CCCCC(=O)NCCc3ccccc3)c(=O)c3ccccc32)c1 | inactive: 5.53%
CCOC(=O)C1=C(CN2CCN(c3cc(C)ccc3C)CC2)NC(=O)NC1c1ccc(Cl)cc1 (stereo not drawn) | inactive: -24.5%
CCOc1ccc(CCNC(=O)Cn2nc(CC)n3c(cc4sccc43)c2=O)cc1 | inactive: -13.4%
Fc1ccc(Cn2c(-c3cccc(Br)c3)nc3ccccc32)cc1 | inactive: -13.9%
COc1ccc(C2NC(=O)N(C)C3=C2C(=O)N(c2ccc(F)cc2)C3)cc1 (stereo not drawn) | inactive: -7.03%
O=C(Nc1c2c(nn1-c1ccc(Cl)cc1)CS(=O)(=O)C2)c1ccccc1F | inactive: -4.63%
O=C(NCCc1nc2ccccc2n1CCCOc1ccc(Cl)cc1)C1CCCCC1 | inactive: 18.5%
Cc1nn2c(C)c(C(=O)NCC(C)c3ccccc3)cnc2c1-c1ccccc1 (stereo not drawn) | inactive: -19.3%

SMILES | activation
COc1ccc(C(=O)Nc2noc3ccccc23)cc1 | inactive: -14.6%
Cc1cccc(NC(=O)CSc2nccn2-c2cccc(Cl)c2)c1C | inactive: -18.5%
CCOc1cc(C2c3c(-c4ccccc4O)n[nH]c3C(=O)N2Cc2cccnc2)ccc1O (stereo not drawn) | inactive: -13.9%
CCC(C(=O)NCc1ccccc1Cl)n1nc(C)c2sc3ccccc3c2c1=O (stereo not drawn) | inactive: -7.9%
CSc1ccc(/C=C2/C(C)=C(CC(=O)O)c3cc(F)ccc32)cc1 | inactive: 4.08%
Cc1ccc(NC(=O)c2sc(-n3nc(C)c(Cc4ccc5c(c4)OCO5)c3C)nc2C)cc1C | inactive: 4.49%
Cc1cc(C)cc(NC(=O)CSCc2cc(=O)c3ccc(C)c(C)c3[nH]2)c1 | inactive: -13.2%
CNS(=O)(=O)c1cn(CC(=O)N2CCN(c3cc(C)ccc3C)CC2)cc1S(=O)(=O)NC | inactive: -6.82%
O=C(CCCn1c(=O)c2sccc2n(Cc2cccc(Cl)c2)c1=O)NCc1ccc2c(c1)OCO2 | inactive: -21.9%
CCOC(=O)CN1C(=O)c2cccnc2Oc2ccccc21 | inactive: -13.8%
O=c1cc(-c2ccccc2)n2c(SCc3cccc([N+](=O)[O-])c3)nnc2[nH]1 | inactive: -3.2%
COc1ccc(NC(=O)CSc2nc(-c3ccco3)nc3cc(=O)[nH]n23)cc1 | inactive: -8.01%
CC(=O)Nc1ccc(NS(=O)(=O)c2c(C)nc3sccn3c2=O)cc1 | inactive: -3.96%
COc1cccc(Cn2c(NCc3ccc(C)cc3)nc3c2c(=O)n(C)c(=O)n3C)c1 | inactive: 20.3%
Cc1ccc(-n2ncc3c(Nc4ccccc4C)ncnc32)cc1 | inactive: -4.1%
CCOc1ccc(CNC(=O)C2CCCN(S(=O)(=O)N(C)c3ccc(F)cc3)C2)cc1OC (stereo not drawn) | inactive: -2.17%
Cc1nn(-c2ccc3nnc(C)n3n2)c(C)c1CCC(=O)Nc1ccc(OC(F)(F)F)cc1 | inactive: -13.7%
COc1ccc(-c2cn3nc(N4CCCC(C(=O)NCc5ccccc5OC)C4)sc3n2)cc1 (stereo not drawn) | inactive: -7.3%
CC[C@]12CCCN3CCc4c(n(c5ccccc45)[C@@](O)(C(=O)OC)C1)[C@@H]32 | inactive: -9.31%
CC(=O)c1ccc(NC(=O)c2ccc(-c3nc(COc4ccc(C)cc4)c(C)o3)cc2)cc1 | inactive: -2.94%
